# Data from the supplement of paper PMC8728848.
# This is one part of the list.
# Assays:
# Test in all cases: glycan array binding signal (z-score within array); higher = stronger binding
# Conditions in all cases: glycan notation: IUPAC condensed, linker removed
# Gal3S6S(b1-4)GlcNAc6S = molecular target: Gal3S6S(b1-4)GlcNAc6S
# Summary of the method: (§1)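 Arrays were curated from the Consortium for Functional Glycomics database, 3228 in total, and kept only where the protein sequence was available. Binding is expressed as a within-array Z-score. This score was averaged across arrays of the same protein sequence at different concentrations or buffers and across linkers, and negative values can be read as non-binding.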
# Gal4S(b1-4)GlcNAc = molecular target: Gal4S(b1-4)GlcNAc
# Summary of the method: as §1
# Gal4S6S(b1-4)GlcNAc = molecular target: Gal4S6S(b1-4)GlcNAc
# Summary of the method: as §1
# Gal6P(b1-4)GlcNAc = molecular target: Gal6P(b1-4)GlcNAc
# Summary of the method: as §1
# Gal6S(b1-3)GlcNAc = molecular target: Gal6S(b1-3)GlcNAc
# Summary of the method: as §1
# Gal6S(b1-3)GlcNAc6S = molecular target: Gal6S(b1-3)GlcNAc6S
# Summary of the method: as §1
# Gal6S(b1-4)Glc = molecular target: Gal6S(b1-4)Glc
# Summary of the method: as §1
# Gal6S(b1-4)Glc6S = molecular target: Gal6S(b1-4)Glc6S
# Summary of the method: as §1
# Gal6S(b1-4)GlcNAc = molecular target: Gal6S(b1-4)GlcNAc
# Summary of the method: as §1
# Gal6S(b1-4)GlcNAc6S = molecular target: Gal6S(b1-4)GlcNAc6S
# Summary of the method: as §1
# GalNAc(a1-3)Gal = molecular target: GalNAc(a1-3)Gal
# Summary of the method: as §1
# GalNAc(a1-3)GalNAc = molecular target: GalNAc(a1-3)GalNAc
# Summary of the method: as §1
# [1] = molecular target: GalNAc(a1-3)GalNAc(a1-3)Gal(a1-4)Gal(b1-4)GlcNAc
# Summary of the method: as §1
# [2] = molecular target: GalNAc(a1-3)GalNAc(b1-3)Gal(a1-4)Gal(b1-4)Glc
# Summary of the method: as §1
# GalNAc(b1-3)Gal = molecular target: GalNAc(b1-3)Gal
# Summary of the method: as §1
# [3] = molecular target: GalNAc(b1-3)Gal(a1-4)Gal(b1-4)GlcNAc
# Summary of the method: as §1
# [4] = molecular target: GalNAc(b1-3)Gal(a1-4)Gal(b1-4)GlcNAc(b1-3)Gal(b1-4)Glc
# Summary of the method: as §1
# [5] = molecular target: GalNAc(b1-3)Gal(a1-6)Gal(b1-4)Glc
# Summary of the method: as §1
# GalNAc(b1-3)GalNAc = molecular target: GalNAc(b1-3)GalNAc
# Summary of the method: as §1
# GalNAc(b1-3)GlcNAc = molecular target: GalNAc(b1-3)GlcNAc
# Summary of the method: as §1
# GalNAc(b1-4)Gal(b1-4)Glc = molecular target: GalNAc(b1-4)Gal(b1-4)Glc
# Summary of the method: as §1
# GalNAc(b1-4)GlcNAc = molecular target: GalNAc(b1-4)GlcNAc
# Summary of the method: as §1
# [6] = molecular target: GalNAc(b1-4)GlcNAc(b1-2)Man
# Summary of the method: as §1
# [7] = molecular target: GalNAc(b1-4)GlcNAc(b1-2)Man(a1-3)[GalNAc(b1-4)GlcNAc(b1-2)Man(a1-6)]Man(b1-4)GlcNAc(b1-4)GlcNAc
# Summary of the method: as §1
# [8] = molecular target: GalNAc(b1-4)GlcNAc(b1-3)GalNAc(b1-4)GlcNAc
# Summary of the method: as §1
# GalNAc(b1-4)GlcNAc6S = molecular target: GalNAc(b1-4)GlcNAc6S
# Summary of the method: as §1
# GalNAc(b1-6)GalNAc = molecular target: GalNAc(b1-6)GalNAc
# Summary of the method: as §1
# GalNAc3S(b1-4)GlcNAc = molecular target: GalNAc3S(b1-4)GlcNAc
# Summary of the method: as §1
# GalNAc3S(b1-4)GlcNAc3S = molecular target: GalNAc3S(b1-4)GlcNAc3S
# Summary of the method: as §1
# [9] = molecular target: GalNAc3S(b1-4)[Fuc(a1-3)]GlcNAc
# Summary of the method: as §1
# GalNAc4S6S(b1-4)GlcNAc = molecular target: GalNAc4S6S(b1-4)GlcNAc
# Summary of the method: as §1
# GalNAc6S(b1-4)GlcNAc = molecular target: GalNAc6S(b1-4)GlcNAc
# Summary of the method: as §1
# Glc(a1-4)Glc = molecular target: Glc(a1-4)Glc
# Summary of the method: as §1
# [10] = molecular target: Glc(a1-4)Glc(a1-4)Glc(a1-4)Glc
# Summary of the method: as §1
# Glc(a1-6)Glc(a1-6)Glc = molecular target: Glc(a1-6)Glc(a1-6)Glc
# Summary of the method: as §1
# [11] = molecular target: Glc(a1-6)Glc(a1-6)Glc(a1-6)Glc
# Summary of the method: as §1
# Glc(b1-4)Glc = molecular target: Glc(b1-4)Glc
# Summary of the method: as §1
# Glc(b1-6)Glc = molecular target: Glc(b1-6)Glc
# Summary of the method: as §1
binder,measurement,setting,value
Pbx1 (Cryptococcus neoformans) (protein) ATTKCLVSGDQDSINNALALGGEGTTVTLCPGSVHRLNSSIIFTAPSQTLTTLGNPKDRNRAMLVVDGEDLACAIRADCKQCSHAMIRSLVIDGNRPQLLRIPKGDALIEVGNAESQTVRDCKLYEPRGWSALHFREGDERQCRFGHIVDNEIGPCGEEWDDEYDSMDETKPLWGNPRADGISLACKDSIVERNVVYDATDGAIVLFGSAGSTVKNNHVYARTRVILGGINLVDYEPWDGDYTNVKVHHNHLYALGRYFKVGIVIGPASWSDDTESVVHSASVTDNEFSGGYWGYGIVVASAKNFEVLRNKVIWDGEQGVARFSGVPGSRCPKAPENGKPTAFLINRGSAKGIFQDDFVNGEVQHIICLNPDQDPPYKPWRFRDSPEAIAAKQAENPTANSAFDSRIAEALVSYQMSLLNSMDAMTQKVEHLTNPIVDDALPFVHEHERAEADKKARQEASRKEKESGNKDVDMLNVKVEELEKSGRRLKKALDGLKSDFEGLSGRLKKSADENKPIIETIFVTSQNLLLGATSQQN,glycan array binding signal (z-score),Gal3S6S(b1-4)GlcNAc6S,-0.29
same,glycan array binding signal (z-score),Gal4S(b1-4)GlcNAc,-0.557
same,glycan array binding signal (z-score),Gal4S6S(b1-4)GlcNAc,-0.366
same,glycan array binding signal (z-score),Gal6P(b1-4)GlcNAc,-0.364
same,glycan array binding signal (z-score),Gal6S(b1-3)GlcNAc,0.304
same,glycan array binding signal (z-score),Gal6S(b1-3)GlcNAc6S,-0.729
same,glycan array binding signal (z-score),Gal6S(b1-4)Glc,0.117
same,glycan array binding signal (z-score),Gal6S(b1-4)Glc6S,-0.351
same,glycan array binding signal (z-score),Gal6S(b1-4)GlcNAc,-1.11
same,glycan array binding signal (z-score),Gal6S(b1-4)GlcNAc6S,-0.075
same,glycan array binding signal (z-score),GalNAc(a1-3)Gal,-0.844
same,glycan array binding signal (z-score),GalNAc(a1-3)GalNAc,-0.282
same,glycan array binding signal (z-score),[1],-0.078
same,glycan array binding signal (z-score),[2],-0.349
same,glycan array binding signal (z-score),GalNAc(b1-3)Gal,0.919
same,glycan array binding signal (z-score),[3],-0.37
same,glycan array binding signal (z-score),[4],-0.341
same,glycan array binding signal (z-score),[5],-0.628
same,glycan array binding signal (z-score),GalNAc(b1-3)GalNAc,-0.877
same,glycan array binding signal (z-score),GalNAc(b1-3)GlcNAc,0.848
same,glycan array binding signal (z-score),GalNAc(b1-4)Gal(b1-4)Glc,-0.606
same,glycan array binding signal (z-score),GalNAc(b1-4)GlcNAc,0.356
same,glycan array binding signal (z-score),[6],-0.323
same,glycan array binding signal (z-score),[7],-0.089
same,glycan array binding signal (z-score),[8],0.461
same,glycan array binding signal (z-score),GalNAc(b1-4)GlcNAc6S,0.049
same,glycan array binding signal (z-score),GalNAc(b1-6)GalNAc,-0.445
same,glycan array binding signal (z-score),GalNAc3S(b1-4)GlcNAc,-0.794
same,glycan array binding signal (z-score),GalNAc3S(b1-4)GlcNAc3S,-0.382
same,glycan array binding signal (z-score),[9],0.766
same,glycan array binding signal (z-score),GalNAc4S6S(b1-4)GlcNAc,0.624
same,glycan array binding signal (z-score),GalNAc6S(b1-4)GlcNAc,0.388
same,glycan array binding signal (z-score),Glc(a1-4)Glc,0.352
same,glycan array binding signal (z-score),[10],-0.56
same,glycan array binding signal (z-score),Glc(a1-6)Glc(a1-6)Glc,-0.461
same,glycan array binding signal (z-score),[11],-0.698
same,glycan array binding signal (z-score),Glc(b1-4)Glc,0.233
same,glycan array binding signal (z-score),Glc(b1-6)Glc,0.036
